Measurements taken from patent US12097241B2, “Methods of treating kidney failure, and/or improving or stablizing renal function using modified relaxin polypeptides” (BRISTOL-MYERS SQUIBB COMPANY, priority 2017, dated 2024).
Not every detail of the peptide structures is certain; ends, links or a residue may be inferred.

Assay: Rat renal blood flow studies
Format: in vivo, Sprague Dawley rats
Conditions: anesthetized male Sprague Dawley rats, 1 mg/kg intravenously, renal blood flow recorded for 45 min

Compound	% change in RBF over baseline
CC[C@H](C)[C@@H]1NC(=O)[C@H](C)NC(=O)[C@H]([C@@H](C)CC)NC(=O)[C@H](CCC(N)=O)NC(=O)[C@H](C)NC(=O)[C@H](CCCNC(=N)N)NC(=O)[C@H](C(C)C)NC(=O)[C@H](CC(C)C)NC(=O)[C@H](CCC(=O)O)NC(=O)[C@H](CCCNC(=N)N)NC(=O)CNC(=O)[C@@H](NC(=O)[C@H](CC(C)C)NC(=O)[C@H](CCCCN)NC(=O)[C@@H](NC(=O)[C@@H](NC(=O)[C@H](CCC(=O)O)NC(=O)[C@H](CCC(=O)O)NC(=O)[C@H](CCSC)NC(=O)[C@H](Cc2c[nH]c3ccccc23)NC(=O)[C@H](CO)NC(=O)[C@H](C)N)C(C)C)[C@@H](C)CC)CSSC[C@@H]2NC(=O)[C@@H](NC(=O)[C@H](CCCCN)NC(=O)[C@H](CC(N)=O)NC(=O)[C@H](C)NC(=O)[C@H](CC(C)C)NC(=O)[C@H](C)NC(=O)[C@H](CO)NC(=O)[C@H](Cc3ccc(O)cc3)NC(=O)[C@H](CC(C)C)NC(=O)[C@@H](N)Cc3ccc(C(C)=NOCCNC(=O)[C@H](CCCCN)NC(=O)[C@H](CCCCN)NC(=O)[C@H](CCCCN)NC(=O)[C@H](CCCCN)NC(=O)[C@H](CCCCN)NC(=O)[C@H](CCCCN)NC(=O)CC[C@H](NC(=O)CCCCCCCCCCCCC(=O)O)C(=O)O)cc3)CSSC[C@H](NC(=O)CNC(=O)[C@H](C(C)C)NC(=O)[C@H](Cc3c[nH]cn3)NC2=O)C(=O)N[C@@H]([C@@H](C)O)C(=O)N[C@@H](CCCCN)C(=O)N[C@@H](CCCNC(=N)N)C(=O)N[C@@H](CO)C(=O)N[C@@H](CC(C)C)C(=O)N[C@@H](C)C(=O)N[C@@H](CCCNC(=N)N)C(=O)N[C@@H](Cc2ccccc2)C(=O)N[C@H](C(=O)O)CSSC[C@@H](C(=O)NCC(=O)N[C@@H](CCSC)C(=O)N[C@@H](CO)C(=O)N[C@H](C(=O)N[C@@H](Cc2c[nH]c3ccccc23)C(=O)N[C@@H](CO)C(=O)O)[C@@H](C)O)NC1=O [AQ1-KKKKKK-Glu^γ-C13-COOH]	+12%
CC[C@H](C)[C@@H]1NC(=O)[C@H](C)NC(=O)[C@H]([C@@H](C)CC)NC(=O)[C@H](CCC(N)=O)NC(=O)[C@H](C)NC(=O)[C@H](CCCNC(=N)N)NC(=O)[C@H](C(C)C)NC(=O)[C@H](CC(C)C)NC(=O)[C@H](CCC(=O)O)NC(=O)[C@H](CCCNC(=N)N)NC(=O)CNC(=O)[C@@H](NC(=O)[C@H](CC(C)C)NC(=O)[C@H](CCCCN)NC(=O)[C@@H](NC(=O)[C@@H](NC(=O)[C@H](CCC(=O)O)NC(=O)[C@H](CCC(=O)O)NC(=O)[C@H](CCSC)NC(=O)[C@H](Cc2c[nH]c3ccccc23)NC(=O)[C@H](CO)NC(=O)[C@H](C)N)C(C)C)[C@@H](C)CC)CSSC[C@@H]2NC(=O)[C@@H](NC(=O)[C@H](CCCCN)NC(=O)[C@H](CC(N)=O)NC(=O)[C@H](C)NC(=O)[C@H](CC(C)C)NC(=O)[C@H](C)NC(=O)[C@H](CO)NC(=O)[C@H](Cc3ccc(O)cc3)NC(=O)[C@H](CC(C)C)NC(=O)[C@@H](N)Cc3ccc(C(C)=NOCCNC(=O)[C@H](CCCCN)NC(=O)[C@H](CO)NC(=O)CNC(=O)CNC(=O)[C@H](CO)NC(=O)CNC(=O)CNC(=O)CC[C@H](NC(=O)CCCCCCCCCCCCC(=O)O)C(=O)O)cc3)CSSC[C@H](NC(=O)CNC(=O)[C@H](C(C)C)NC(=O)[C@H](Cc3c[nH]cn3)NC2=O)C(=O)N[C@@H]([C@@H](C)O)C(=O)N[C@@H](CCCCN)C(=O)N[C@@H](CCCNC(=N)N)C(=O)N[C@@H](CO)C(=O)N[C@@H](CC(C)C)C(=O)N[C@@H](C)C(=O)N[C@@H](CCCNC(=N)N)C(=O)N[C@@H](Cc2ccccc2)C(=O)N[C@H](C(=O)O)CSSC[C@@H](C(=O)NCC(=O)N[C@@H](CCSC)C(=O)N[C@@H](CO)C(=O)N[C@H](C(=O)N[C@@H](Cc2c[nH]c3ccccc23)C(=O)N[C@@H](CO)C(=O)O)[C@@H](C)O)NC1=O [AQ1-KSGGSGG-Glu^γ-C13-COOH]	+17%
